According to PubChem BioAssay AID2675 (National Center for Advancing Translational Sciences (NCATS), 2010):
Screen size: about 280,000 compounds; about 100 (0.036%) were called active. Inconclusive results, whose numbers are uncertain, are shown with a selection of clear calls. The call rests on the fitted dose curve; in most records, active means well fitted inhibition curve with a large enough effect in the signal ratio, with a control signal flat (not every such curve was filed as active); inconclusive means small, poorly fitted or top-dose-only effect, or effect the other way, or a change in a side signal; inactive means no such curve, though single readings can be large or run the other way; the % refers to the signal ratio. Potencies of inconclusive entries are doubtful fits and often do not repeat. “Side channel” marks fits to a control or component signal instead of the main read-out.
On the % scale 0 is the no-effect control and ±100 the full control effect; potency means the concentration at half of the fitted maximal effect; tags describe the fitted curve by direction and shape or compound fluorescence and quenching.

Each compound was assayed against Muscleblind-like protein 1 (Homo sapiens) (UniProt Q9NR56) (assay: qHTS Assay for Inhibitors of MBNL1-poly(CUG) RNA binding). Conditions: TR-FRET MBNL1-His/biotin-(CUG)12 binding, 665/545 ratio; activity change, negative = inhibition: at 57.5 µM (top of the series).
Sequence of UniProt Q9NR56 (Q9NR56 whole entry, looked up): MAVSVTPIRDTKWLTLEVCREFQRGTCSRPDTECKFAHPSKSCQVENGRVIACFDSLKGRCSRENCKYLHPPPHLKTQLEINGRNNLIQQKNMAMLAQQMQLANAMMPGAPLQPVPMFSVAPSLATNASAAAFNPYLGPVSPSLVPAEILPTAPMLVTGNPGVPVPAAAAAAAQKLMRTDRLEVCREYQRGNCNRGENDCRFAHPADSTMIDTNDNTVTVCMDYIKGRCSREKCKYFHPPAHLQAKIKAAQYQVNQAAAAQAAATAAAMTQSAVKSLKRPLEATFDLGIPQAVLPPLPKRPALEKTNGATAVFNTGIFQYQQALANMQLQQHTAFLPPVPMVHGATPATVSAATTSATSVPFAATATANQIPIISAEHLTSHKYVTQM
Method in brief: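 Compound titration spanned 92 nM–58 uM against the MBNL1-His/biotin-(CUG)12 complex. After 60 min at room temperature with 5 nM streptavidin-XL665 and 0.055 ng/ul terbium anti-His, ratiometric 665/545 nm emission (Ex 340 nm) normalized to controls.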
With `COCCn1c(C)cc(C(=O)COC(=O)c2ccc([N+](=O)[O-])o2)c1C` the Potency was inconclusive: 7.94 µM [quencher, side channel, partial curve]. `O=C(O)CSc1nc2ccccc2nc1Cc1ccccc1F` was tested, and the Potency was inconclusive: 11.2 µM [fluorescent, side channel, partial curve]. For `c1ccc(COc2cccc(CNCc3cccnc3)c2)cc1`, the “activity change, negative = inhibition” value was inactive: -2.84%. `O=C(Oc1ccc(C(=S)N2CCOCC2)cc1)c1cccc([N+](=O)[O-])c1` was tested, and the Potency was inconclusive: 4.47 µM [quencher, side channel, single point]. In the case of `C=C(C)CNC(=S)N/N=C/c1ccco1`, the Potency is reported as inconclusive: 15.8 µM [quencher, side channel, partial curve, poor fit]. With `Cc1ccc(-n2c(O)c(C=NC3CCS(=O)(=O)C3)c3ccccc3c2=O)cc1C` (stereo not given) the Potency was inconclusive: 28.2 µM [quencher, side channel, partial curve]. In the case of `CCOc1ccc(S(=O)(=O)NCC2CCCO2)c2ccccc12` (stereo not given), the “activity change, negative = inhibition” value is reported as inactive: -5.59%. With `CC(C)C12CN3CC(C(C)C)(CN(C1)C3c1ccc([N+](=O)[O-])o1)C2=O` (stereo not given) the Potency was inconclusive: 12.6 µM [quencher, partial curve, poor fit]. `COC(=O)Cc1csc(Nc2ccccc2Cl)n1` was tested, and the Potency was inconclusive: 0.891 µM [fluorescent, side channel, partial curve]. With `Cc1ccc(N(C(C)C(=O)Nc2ccc3c(c2)OCO3)S(C)(=O)=O)cc1` (stereo not given) the “activity change, negative = inhibition” value was inactive: 4.2%. With `CN(C)/C=N/c1ncc(C(=O)c2ccc(Cl)cc2)s1` the Potency was inconclusive: 14.1 µM [quencher, side channel, partial curve]. In the case of `COc1ccc2cc(-c3cc(C(=O)O)c4ccccc4n3)ccc2c1`, the Potency is reported as inconclusive: 31.6 µM [quencher, single point]. `Cc1cc2c(cc1C)N(C(=O)CSc1nncn1C)C(C)(C)c1ssc(=S)c1-2` was tested, and the Potency was inconclusive: 10 µM [quencher, side channel, partial curve]. In the case of `O=C(Nn1c(-c2ccccc2)nc2ccccc2c1=O)c1ccc([N+](=O)[O-])cc1`, the Potency is reported as inconclusive: 39.8 µM [quencher, side channel, single point]. With `NS(=O)(=O)c1ccc(Nc2ccc3nonc3c2[N+](=O)[O-])cc1` the Potency was inconclusive: 8.91 µM [quencher, side channel, partial curve]. In the case of `Cc1ccc(-n2c(SCC(=O)NCC3CCCO3)nc3c(c2=O)SCC3)cc1` (stereo not given), the Potency is reported as inconclusive: 15.8 µM [quencher, side channel, partial curve]. With `CC1CC2(CCCCC2)Nc2c1ccc1ccccc21` (stereo not given) the Potency was inconclusive: 39.8 µM [quencher, single point]. For `Cc1cc(SCC(=O)NCCN2C(=O)CSC2=O)nc2ccccc12`, the Potency was inconclusive: 0.1 µM [fluorescent, side channel, full curve]. In the case of `COc1ccccc1/C=C/C(=O)NCCc1ccccn1`, the Potency is reported as inconclusive: 25.1 µM [quencher, side channel, partial curve]. For `O=C(NCCNc1ccc([N+](=O)[O-])cc1)c1ccccc1F`, the Potency was inconclusive: 25.1 µM [quencher, side channel, partial curve]. For `COc1ccc(OCCn2c(NC(=O)c3ccco3)nc3ccccc32)cc1`, the “activity change, negative = inhibition” value was inactive: 44.3%. With `CC(C)CC(=O)N1CCN(Cc2cccc([N+](=O)[O-])c2)CC1` the Potency was inconclusive: 28.2 µM [quencher, single point]. In the case of `Cc1csc(Sc2ccc([N+](=O)[O-])cc2C(=O)OCC(=O)NC(=O)NC(C)(C)C)n1`, the Potency is reported as inconclusive: 25.1 µM [quencher, side channel, partial curve]. For `Cc1ccc2[nH]c3c(c2c1)CCc1cn[nH]c1-3`, the Potency was inconclusive: 17.8 µM [quencher, side channel, single point]. `Cc1ccc(C2=NS(=O)(=O)N(C)C(C(=O)NCc3ccccn3)=C2)cc1` was tested, and the Potency was inconclusive: 44.7 µM [quencher, side channel, partial curve, poor fit]. In the case of `Cc1cc2cc(CNC(=O)c3cccc([N+](=O)[O-])c3)ccc2[nH]1`, the Potency is reported as inconclusive: 12.6 µM [quencher, side channel, partial curve]. For `Nc1nnc(-c2cc3ccccc3oc2=O)s1`, the Potency was inconclusive: 14.1 µM [quencher, partial curve]. In the case of `CC(C)N(CC(=O)Nc1ccc(Cl)cc1C(F)(F)F)C(=O)CCl`, the “activity change, negative = inhibition” value is reported as inactive: -1.49%. In the case of `CC(=O)COc1c(-c2ccco2)oc2ccccc2c1=O`, the Potency is reported as inconclusive: 17.8 µM [quencher, side channel, partial curve]. In the case of `N#CCCn1cc(/C=C(\C#N)c2nc3ccccc3s2)c(-c2ccc(F)cc2)n1`, the Potency is reported as inconclusive: 0.141 µM [quencher, side channel, full curve, poor fit]. With `Cc1ccc([N+](=O)[O-])cc1NC(=O)C(C)N1CCCCC1` (stereo not given) the Potency was inconclusive: 17.8 µM [quencher, side channel, single point]. For `C=CCn1c(C2CCCCC2)n[nH]c1=S`, the “activity change, negative = inhibition” value was inactive: -2.89%. In the case of `Cc1ccc2oc(=O)c3cc(C(=O)NCCCN4C(C)CCCC4C)sc3c2c1` (stereo not given), the Potency is reported as inconclusive: 12.6 µM [quencher, side channel, partial curve]. With `CC(C)P(=O)(c1cccc(C(=O)O)c1)C(C)C` the Potency was inconclusive: 3.55 µM [fluorescent, side channel, partial curve]. In the case of `CCCn1cc(CN2CCC(Cc3cccc(F)c3)(C(=O)OCC)CC2)c(C)n1`, the Potency is reported as inconclusive: 158 µM [inhibitor, partial curve]. `O=C(O)/C(=C\c1ccc(F)cc1)c1ccc(-c2ccccc2)cc1` was tested, and the Potency was inconclusive: 31.6 µM [quencher, side channel, partial curve]. With `COc1ccc(-c2noc(CSc3nc(N)c(-c4ccccc4)c(=O)[nH]3)n2)cc1` the “activity change, negative = inhibition” value was inactive: 0.644%. For `Cc1ccc(Nc2nc(N)c([N+](=O)[O-])c(NCCO)n2)cc1`, the Potency was inconclusive: 15.8 µM [quencher, side channel, partial curve]. With `Cc1ccc(N=c2c([N+](=O)[O-])nn(-c3ccccc3)n2O)c(C)c1` the Potency was inconclusive: 25.1 µM [quencher, side channel, partial curve]. For `COc1cc(OC)c(NC(=O)c2ccc3c(SCC(=O)O)c4c(nc3c2)CCCC4)cc1Cl`, the “activity change, negative = inhibition” value was inactive: 14.7%. In the case of `CC(C)c1nnc(NC(=O)CCC(=O)NCc2ccco2)s1`, the Potency is reported as inconclusive: 25.1 µM [quencher, single point]. With `COc1ccc(N=C2C(=O)Nc3ccccc32)cc1` the Potency was inconclusive: 15.8 µM [quencher, side channel, partial curve]. `CCOC(=O)Cc1c(Sc2ccccc2)c2cc(C)ccc2n1C` was tested, and the Potency was inconclusive: 0.112 µM [fluorescent, side channel, full curve, poor fit]. For `O=[N+]([O-])c1cc(S(=O)(=O)Nc2ccccc2)ccc1N1CCN(c2ccc(O)cc2)CC1`, the Potency was inconclusive: 39.8 µM [quencher, single point]. For `COC(=O)c1nn(-c2ccc(OC)cc2)c(=O)cc1O`, the Potency was inconclusive: 28.2 µM [quencher, side channel, single point]. For `CCCCc1cc(=O)oc2cc(C)cc(OC(C)C(=O)O)c12` (stereo not given), the “activity change, negative = inhibition” value was inactive: 1.17%. In the case of `CC(c1ccccn1)N(CCN(C)C)C(=S)Nc1cccc(F)c1` (stereo not given), the Potency is reported as inconclusive: 39.8 µM [quencher, side channel, single point]. For `COc1ccc(CCn2c(-c3cc([N+](=O)[O-])cc([N+](=O)[O-])c3)nc3nc4ccccc4nc32)cc1OC`, the Potency was inconclusive: 17.8 µM [fluorescent, side channel, single point]. With `COc1ccc(C2=CSC3=NCCN23)cc1[N+](=O)[O-]` the Potency was inconclusive: 12.6 µM [quencher, side channel, partial curve]. `Cc1ccc2cc(C#N)c(N3CCCN(S(=O)(=O)c4ccc(F)cc4)CC3)nc2c1` was tested, and the Potency was inconclusive: 39.8 µM [fluorescent, single point]. With `COc1cc(/C=C/C(=O)O)cc(S(=O)(=O)NCc2ccc3c(c2)OCO3)c1OC` the Potency was inconclusive: 6.31 µM [inhibitor, single point]. `COc1ccc(/C(O)=C2/C(=O)C(=O)N(CCN3CCNCC3)C2c2cccc([N+](=O)[O-])c2)cc1` (stereo not given) was tested, and the Potency was inconclusive: 25.1 µM [quencher, side channel, partial curve]. With `CN(Cc1ccccc1)C(=O)COC(=O)c1cc(NS(=O)(=O)c2cccs2)ccc1O` the “activity change, negative = inhibition” value was inactive: -2.38%. `COc1ccc(C(NC=O)c2cc(OC)c(OC)cc2Br)cc1OC` (stereo not given) was tested, and the “activity change, negative = inhibition” value was inactive: 4.05%. `O=C(NCc1cccnc1)c1cnc2n(c1=O)CCS2` was tested, and the Potency was inconclusive: 39.8 µM [quencher, side channel, single point]. With `CCc1cc(=O)oc2cc(C)cc(O)c12` the “activity change, negative = inhibition” value was inactive: 131%. For `Cc1ccc(NCc2n[nH]c(=S)n2Cc2ccccc2)cc1Cl`, the “activity change, negative = inhibition” value was inactive: 5.89%. With `Cc1cccc(OC(=O)c2ccc3nccnc3c2)c1` the Potency was inconclusive: 11.2 µM [quencher, side channel, partial curve]. For `Cc1ccc(-n2c(SCC(=O)Nc3cccc(S(=O)(=O)NC4=NCCCCC4)c3)nc3ccccc3c2=O)cc1`, the Potency was inconclusive: 28.2 µM [fluorescent, side channel, single point]. `CC1CN(S(=O)(=O)c2cccc3nsnc23)CC(C)O1` (stereo not given) was tested, and the Potency was inconclusive: 3.55 µM [quencher, side channel, full curve].
